# Experimental data published in PubChem BioAssay AID588453 (National Center for Advancing Translational Sciences (NCATS), 2011).
# Out of some 390,000 compounds screened, about 4,000 (1%) were called active. This list was built around the results that the source calls inconclusive (neither active nor inactive); the mix of calls is not that of the screen. Calls come from the whole dose curve; as a rule, active = well fitted inhibition curve with a large enough effect; inconclusive = small, poorly fitted or top-dose-only effect; inactive = no such curve, though single readings can be large or run the other way. A potency beside an inconclusive call is a rough fit, not a confirmed value.
# Molecular target: Thioredoxin reductase 1, cytoplasmic (Rattus norvegicus) (UniProt O89049)
# Chain of UniProt O89049 (O89049 whole entry, looked up): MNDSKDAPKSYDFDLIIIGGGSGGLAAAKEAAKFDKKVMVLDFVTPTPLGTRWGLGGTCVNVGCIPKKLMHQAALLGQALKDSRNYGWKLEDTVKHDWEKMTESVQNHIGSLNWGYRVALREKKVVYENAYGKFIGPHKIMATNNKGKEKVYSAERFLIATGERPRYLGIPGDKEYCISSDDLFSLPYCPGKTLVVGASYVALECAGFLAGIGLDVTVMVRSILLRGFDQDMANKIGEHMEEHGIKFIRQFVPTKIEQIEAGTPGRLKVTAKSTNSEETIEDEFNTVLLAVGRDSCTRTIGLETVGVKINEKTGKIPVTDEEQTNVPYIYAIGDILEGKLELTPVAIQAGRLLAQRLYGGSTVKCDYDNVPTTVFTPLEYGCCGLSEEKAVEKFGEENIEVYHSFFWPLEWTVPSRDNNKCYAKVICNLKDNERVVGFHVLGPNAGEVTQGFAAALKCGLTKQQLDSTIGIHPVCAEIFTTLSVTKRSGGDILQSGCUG
# Experiment: qHTS Assay for Inhibitors of Mammalian Selenoprotein Thioredoxin Reductase 1 (TrxR1): qHTS; note: nearly all actives have a fitted effect of over 65% in size
# Settings: recombinant rTrxR1, NADPH fluorescence consumption, selenite substrate; series mostly up to 114 µM
# Outline: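 Rat TrxR1 (90 nM in the dispensed reagent) was pre-reduced with 400 uM NADPH for 5 min at room temperature, then incubated with compound for 15 min. After 400 uM selenite was added, NADPH fluorescence (Ex 340/Em 450 nm) was followed for 8 min.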
# % is set by controls: 0 for no effect and ±100 for the full control effect; potency is the fitted concentration of half-maximal effect; tags give direction and shape of the fitted curve.
SMILES,Potency,"activity change, negative = inhibition"
CCCN=C1N(C)C[C@@H]2[C@@H]3C(=O)N(Cc4ccccc4)C(=O)[C@@H]3[C@](Cc3ccccc3)(C(=O)OC)N12,"inconclusive: 39.8 µM [inhibitor, single point]",–
CC(C)CN(C(=O)CN1CCCCCC1)c1c(N)n(CC(C)C)c(=O)[nH]c1=O,"inconclusive: 25.1 µM [inhibitor, single point]",–
Cc1cccc(C(=O)NC(=S)N2CCN(C(=S)NC(=O)c3cccc(C)c3)CC2)c1,inactive,–
NC(=S)N/N=C1\CC(n2nnn(-c3cccc(Cl)c3)c2=S)C2COC1O2 (configuration not stated),inactive,–
O=[N+]([O-])c1ccc(NC(=S)N/C(=N/CS(=O)(=O)c2ccccc2)c2ccccc2)cc1,"inconclusive: 22.4 µM [inhibitor, single point]",–
COc1ccc(-n2c(=O)c3sc4ccccc4c3n(Cc3ccccc3C)c2=O)cc1OC,inactive,–
Cc1ccccc1C(=O)NC(=S)Nc1ccc(Cc2ccncc2)cc1,"inconclusive: 10 µM [inhibitor, full curve]",–
Cn1cc([C@@H]2C[C@H]3CN(Cc4cccc(Cl)c4)C(=O)[C@]34CCCN24)c(-c2ccccc2)n1,–,inactive: 11.5% [at 11.4 µM]
COC(=O)C1Cc2c([nH]c3ccccc23)C(C)N1 (configuration not stated),"inconclusive: 56.2 µM [inhibitor, partial curve, poor fit]",–
CN(C)CCCNC(=S)Nc1ccc(Br)cc1,"inconclusive: 79.4 µM [inhibitor, partial curve, poor fit]",–
CCNc1ccc(/C=C2\C=Cc3ccccc32)cc1,"inconclusive: 70.8 µM [inhibitor, partial curve, poor fit]",–
Cc1cccc(N2CCN(C(=O)c3c(C)nn(Cc4ccccc4Cl)c3C)CC2)c1C,"inconclusive: 39.8 µM [inhibitor, single point]",–
CCCCn1c(Nc2ccc(OC)cc2)nc2ccccc21,inactive,–
C/C(=N\O)C(=O)C(CN1CCCCC1)CN1CCCCC1,active: 0.447 µM,–
O=c1c(/C=N/Nc2ccccc2)c(Sc2nnnn2-c2ccccc2)nc2ccccn12,"inconclusive: 20 µM [inhibitor, partial curve, poor fit]",–
O=C(NC1CCC(O)CC1)c1ccc(-c2ccc([N+](=O)[O-])cc2)o1 (configuration not stated),active: 3.16 µM,–
CN1C(=O)/C(=C\C=C2/CCCN2C)N(C)C1=S,"inconclusive: 89.1 µM [inhibitor, single point]",–
CCn1c(COc2ccccc2)nnc1SCC(=O)CC(=O)Nc1ccccc1OC,inactive,–
COc1cc(NC(=O)c2cc(-c3cccc(OC)c3)n[nH]2)cc(OC)c1,inactive,–
COC(=O)c1ccc(NC(=O)CC2C(=O)N(c3cccc(OC)c3)C(=O)N2C(C)C)cc1 (configuration not stated),inactive,–
CC(=O)Nc1ccc(S(=O)(=O)N2CCn3cccc3C2C)cc1 (configuration not stated),"inconclusive: 79.4 µM [inhibitor, single point]",–
COc1cc(CCNC2=CC(=O)c3ncccc3C2=O)ccc1O,–,inactive: -6.02% [at 11.4 µM]
Cc1ccc(/C=c2\sc3nc(-c4cccs4)nn3c2=O)o1,"inconclusive: 12.6 µM [inhibitor, full curve, poor fit]",–
C=C1C(=O)OC2C1CCC(C)C1C=CC(=O)C12C (configuration not stated),"inconclusive: 44.7 µM [inhibitor, partial curve]",–

SMILES,Potency,"activity change, negative = inhibition"
Cc1cccc(OCC(=O)NC(Cc2ccccc2)C(=O)O)c1 (configuration not stated),inactive,–
CCOC(=O)c1[nH]c2ccccc2c1N=CN(C)C,"inconclusive: 70.8 µM [inhibitor, single point]",–
CCCC(C1=C(O)CC(C)(C)CC1=O)C1C(=O)CC(C)(C)CC1=O (configuration not stated),"inconclusive: 28.2 µM [inhibitor, single point]",–
Cc1ccc(CNC(=O)/C=C/c2ccc(Br)o2)cc1,"inconclusive: 17.8 µM [inhibitor, partial curve]",–
Cc1ccc(NC(=O)c2oc3ccccc3c2NC(=O)C2CCCCC2)cc1,"inconclusive: 100 µM [inhibitor, single point]",–
CC(C)OCCCNC(=S)Nc1ccc2nc3n(c(=O)c2c1)CCCCC3,"inconclusive: 79.4 µM [inhibitor, single point]",–
Cc1nc2ccccc2n1/N=C/c1ccc([N+](=O)[O-])o1,"inconclusive: 14.1 µM [inhibitor, full curve]",–
CN(Cc1ccccn1)Cc1nc(-c2ccc(Cl)cc2)no1,"inconclusive: 56.2 µM [inhibitor, partial curve, poor fit]",–
O=S(=O)(NCc1ccc(Cl)cc1)c1ccc(Cl)nc1,inactive,–
CC(C)c1ccc(S(=O)(=O)NCc2nc3cccnc3n2Cc2ccc(F)cc2)cc1,inactive,–
Cc1ccc(CN=Cc2[nH]c3ccc(Br)c(Cl)c3c2O)cc1,"inconclusive: 39.8 µM [inhibitor, partial curve, poor fit]",–
COc1ccc(N(C(C)C(=O)N2CCCC2)S(C)(=O)=O)cc1 (configuration not stated),inactive,–
O=C(/C=C/c1ccc(Cl)cc1)c1ccc([N+](=O)[O-])o1,active: 5.01 µM,–
CN(C)S(=O)(=O)c1ccc(N)c([N+](=O)[O-])c1,–,inactive: 3.47% [at 2.29 µM]
Cc1ccccc1NC(=O)CCS(=O)(=O)c1cccc2nonc12,"inconclusive: 79.4 µM [inhibitor, single point]",–
C=CCN1C=C2C(=O)C(C)(OC(=O)CCC(=O)OC)C(=O)C(Br)=C2C=C1c1ccc(OC)cc1 (configuration not stated),inactive,–
CCCc1cc(=O)[nH]c(SCC(=O)c2c[nH]c3ccccc23)n1,inactive,–
Nc1nc2c(F)c(F)c(F)cc2s1,inactive,–
COc1ccc(Br)cc1CNCc1c(C(=O)O)c(C)n(Cc2ccccc2C)c1C,inactive,–
COC(=O)Oc1ccc(/C=N/NC(=O)CSCc2ccc(Cl)cc2)cc1OC,inactive,–
Cc1ccc(S(=O)(=O)/N=C2\C=C(NS(=O)(=O)c3ccccc3)C(=O)c3ccccc32)c(C)c1,inactive,–
Cc1cc2c(cc1S(=O)(=O)CCC(=O)N1CCN(c3ccccc3)CC1)OCC(=O)N2,inactive,–
C[C@H]1c2cccc(O)c2C(O)=C2C(=O)[C@]3(O)C(O)=C(C(N)=O)C(=O)C(N(C)C)[C@@H]3[C@@H](O)C21 (some centres not stated),"inconclusive: 50.1 µM [inhibitor, partial curve, poor fit]",–
